The supplement of paper PMC11417369
The other results are listed elsewhere or left out.

Tested on: PfAP2-HC AP2 domain (GST-tagged)
Assay: gcPBM binding intensity (ln(normalized median fluorescence intensity)); higher = stronger DNA binding
Method in brief: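 After 1 h on an Agilent 4 × 180k array of primer-extended double-stranded 36-bp intergenic genomic probes and negative controls, bound GST-tagged P. falciparum DNA-binding domains were detected with Alexa488 anti-GST antibody and scanned at 488 nm. The domains had been expressed in E. coli, and binding took place in 1× PBS with 1% milk, 0.2 mg/ml BSA, 0.5% salmon testes DNA and 0.03% Triton X-100. Binding intensity is the highest Masliner-normalised natural-log median intensity across replicate spots of either probe orientation.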

Going from “TACATCAAACAAGTATGTACATATATATATATATAT [XGTACX_site7415]” to “AACACTTCATACACGTGTACAAATATAATATAGACA [XGTACX_site5671]”, the “gcPBM binding intensity (ln)” value rises from 9.67 to 10.2.

First: GGAAATAATATTATTACACACCAAAATGTATAAAAA [CACACA_site4036]
Second: AAAATATTCACGTGTACATATATATATATATATTAT [TGCATGCA_negctrl_site192]
The “gcPBM binding intensity (ln)” value of the first is lower: 9.72 for the first, 9.95 for the second.

Compared with “ATATTAAAATTAAACGCATGCATATATTATAAAAGA [TGCATGCA_site231]”, “CTAATTAATGGGTACATACACACATATATACATACA [CACACA_site743]” is higher in “gcPBM binding intensity (ln)” value: 9.74 for the first, 9.87 for the second.

First: TTCTGTATAACACAAATTTTTTTTTATTCACTCTGT [TGCATGCA_negctrl_site410]
Second: TTTTTATCAAATAAATGTACACATATTAAATGAAAT [XGTACX_site555]
The “gcPBM binding intensity (ln)” value of the first is higher: 9.74 for the first, 9.4 for the second.

Going from “AATAATATAACAGAACAAAACTAAATATACACATAT [TGCATGCA_negctrl_site31]” to “TATTTCATAATAAATTGTACGCGTAGAAAACCATGA [XGTACX_site7506]”, the “gcPBM binding intensity (ln)” value rises from 9.94 to 9.99.

First: AAAAAAAAAAAAAACACACACACACGCATACAAAAT [CACACA_site6794]
Second: TTATATCTTATAAAATGTACATAAAATATATAATAT [XGTACX_site7647]
The “gcPBM binding intensity (ln)” value of the first is higher: 10.6 for the first, 9.43 for the second.

Going from “ATATTTTTCTTAAGTACACACTAAATAGAAACTAAA [CACACA_site4191]” to “ATTAATTATATAATATGTACATATTACAAATATATA [XGTACX_site1478]”, the “gcPBM binding intensity (ln)” value rises from 9.56 to 9.58.

Going from “TTAATGTTATATGTGTGTACATATAAGTTTAGTAAA [XGTACX_site4651]” to “GAGAAAAATAAATACACACACATAAATAAATACATA [CACACA_site5102]”, the “gcPBM binding intensity (ln)” value rises from 9.89 to 10.9.

First: TATGTATATTTTAATTGTACGTGTATGGTTGTAAAT [XGTACX_site8738]
Second: TGATTAATAATTTTCTTCATACATTAAACATCTTTT [TGCATGCA_negctrl_site342]
The “gcPBM binding intensity (ln)” value of the first is higher: 9.6 for the first, 9.43 for the second.

First: TTTTTTTTTTCATTAACACACATAAATATATATATA [CACACA_site5759]
Second: CACTAATAGTGGATTACACACATATATCTGTATTTA [CACACA_site5403]
The “gcPBM binding intensity (ln)” value of the first is lower: 9.63 for the first, 9.76 for the second.

Compared with “TTTGTAAGAAATAAATGTACAAAAATTAATTTTTAT [XGTACX_site8983]”, GACATAAAATTCAAAGTGCATAAATAAAATAAACCC is higher in “gcPBM binding intensity (ln)” value: 9.45 for the first, 9.76 for the second.

Going from “TTTTTTTTTTTTTTCTGTACAAATTAAATCTACATA [XGTACX_site8285]” to “ATATTTAAAAAATGATGTACAAAAATGTAGTCACAC [XGTACX_site6208]”, the “gcPBM binding intensity (ln)” value rises from 9.25 to 9.73.

Compared with “GAAATTAAATGACATACACACTATATTATAGATTTT [CACACA_site7468]”, “TATTTTAATGAATTCACACATATAATTTATTTTATA [CACACA_site4538]” is lower in “gcPBM binding intensity (ln)” value: 9.82 for the first, 9.49 for the second.

Compared with “ATAGTATCTGGTAGCTGTACGAGTCGTAGAGTGTAA [XGTACX_site4936]”, “ATATAAAACTAATTTCTTTTTCTCCTTTTATTTTGT [CACACA_negctrl_site1251]” is lower in “gcPBM binding intensity (ln)” value: 9.69 for the first, 9.65 for the second.

First: AATATATATTAATAAAGTACAGGAAATATTTTTACC [XGTACX_site7052]
Second: AAAATACATAGACACACACACACACGGATATAAATA [CACACA_site7643]
The “gcPBM binding intensity (ln)” value of the first is lower: 9.73 for the first, 11.2 for the second.

Going from “ATATATATATATAAATGTACAGATATATTTTTTATT [XGTACX_site5445]” to “TTTAATTTGATAGACACATGCACACGTGCAATACTT [TGCATGCA_site777]”, the “gcPBM binding intensity (ln)” value rises from 9.67 to 9.76.

Going from “TACTAAAAAATATAAACACACATATATTTTACATAT [CACACA_site2042]” to “TATTCCTATAAAAAAACACACACATATAAATATATA [CACACA_site8727]”, the “gcPBM binding intensity (ln)” value rises from 9.75 to 10.3.

Compared with “AAATATATTTCACGCACACACACCCCAAATAAATTT [CACACA_site3820]”, “ATATTTCAAAATGAAAGTACATATAAAAATTATACA [XGTACX_site3787]” is lower in “gcPBM binding intensity (ln)” value: 11.2 for the first, 9.56 for the second.

Going from “AAGTATTTTTTTACATGTACATATATATATATATAT [XGTACX_site5065]” to “AAATAGATAAGTAGGACACACATATATATATATTAA [CACACA_site1862]”, the “gcPBM binding intensity (ln)” value rises from 9.9 to 10.

First: ATTTGCAGTATTTCGGAACACACAAACATAAATATG [CACACA_site8726]
Second: TATAAAAAATTCTTCCTTATTTTATGATATATATAT [TGCATGCA_negctrl_site57]
The “gcPBM binding intensity (ln)” value of the first is higher: 9.69 for the first, 9.38 for the second.

Going from “TTTAATTATTAGTGTGCACACAACTATGAGTTTTTA [CACACA_site8997]” to “AATTACATTCAATTCTGTACTAATAGTAATTCAAAA [XGTACX_site7419]”, the “gcPBM binding intensity (ln)” value falls from 9.99 to 9.52.

Going from “CAAAAACATACCTACACACACAATATGTATTTATAA [CACACA_site5862]” to AAATGAATATTCATAGTGCAATATATAAATGAAAAT, the “gcPBM binding intensity (ln)” value falls from 10.1 to 9.85.

First: CATTTTTTTTTATAAATACACACGTACGGGTGCATA [CACACA_site1569]
Second: TTCTGGCAAAATAACACACACATATATTTTATATAC [CACACA_site3242]
The “gcPBM binding intensity (ln)” value of the first is lower: 9.58 for the first, 10.5 for the second.

Compared with “TTCTTAAAAAAAAATAAAATAAAAAAAAAAATAAAA [CACACA_negctrl_site99]”, “GAACATTTACGCCCCACACACCTACCAACAAAAAAA [CACACA_site7746]” is higher in “gcPBM binding intensity (ln)” value: 9.33 for the first, 10 for the second.

Compared with “ATAATTACATAGATTGGTACACATTTTTGATTGTAT [XGTACX_site3802]”, “TTAAAAATGTGTGTGCGTACATAATATTTCGAAAAA [XGTACX_site8197]” is higher in “gcPBM binding intensity (ln)” value: 9.87 for the first, 10 for the second.

Going from “GTACAAATGATTAATCCTTTACTTATATATATATAT [XGTACX_negctrl_site138]” to “TCATTTTATTATTCTACACACTTATCTATAATTATA [CACACA_site34]”, the “gcPBM binding intensity (ln)” value falls from 10 to 9.99.

Going from “TTTTTCATATGACACACACACAAAAATAATGTGGAA [CACACA_site7692]” to “AAATGAACACGAAAGGAAAAAAAAATATATATATAT [CACACA_negctrl_site267]”, the “gcPBM binding intensity (ln)” value falls from 9.99 to 9.56.

Going from “AAAAATATATATTCAGTGCATATAACAAAAATTATA [GTGCAC_site9794]” to “ATTAAATAAAAAAACACACACATATATACATATATA [CACACA_site3445]”, the “gcPBM binding intensity (ln)” value rises from 9.73 to 10.6.
